From US20220273768A1 (The George Washington University, priority 2019, published 2022)

System: DIO mice
Assay: Tail flick test (hot water tail immersion)
Details: 60 minutes after morphine, IN leptin 0.8 mg/kg

leptin
mice in which the increase in tail flick latency was consistent: six out of seven
